This is an account of results in PMC4336329 (PLoS ONE, 2015).

Out of some 310,000 compounds screened, about 14,000 (4.5%) showed an effect of 50% or more. The effect is printed as a negative number. This is one part of the list. Where a SMILES comes first, the peptide text is derived from it.
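Also: peak tail current of the secondary pulse compared with the same well before compound.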

For the test, the target named is human ether-à-go-go-related gene (hERG) potassium channel (human, UniProt Q12809). Description: primary screen, population patch clamp on CHO cells stably expressing hERG.
Sequence of human ether-à-go-go-related gene (hERG) potassium channel (Q12809 whole entry, looked up): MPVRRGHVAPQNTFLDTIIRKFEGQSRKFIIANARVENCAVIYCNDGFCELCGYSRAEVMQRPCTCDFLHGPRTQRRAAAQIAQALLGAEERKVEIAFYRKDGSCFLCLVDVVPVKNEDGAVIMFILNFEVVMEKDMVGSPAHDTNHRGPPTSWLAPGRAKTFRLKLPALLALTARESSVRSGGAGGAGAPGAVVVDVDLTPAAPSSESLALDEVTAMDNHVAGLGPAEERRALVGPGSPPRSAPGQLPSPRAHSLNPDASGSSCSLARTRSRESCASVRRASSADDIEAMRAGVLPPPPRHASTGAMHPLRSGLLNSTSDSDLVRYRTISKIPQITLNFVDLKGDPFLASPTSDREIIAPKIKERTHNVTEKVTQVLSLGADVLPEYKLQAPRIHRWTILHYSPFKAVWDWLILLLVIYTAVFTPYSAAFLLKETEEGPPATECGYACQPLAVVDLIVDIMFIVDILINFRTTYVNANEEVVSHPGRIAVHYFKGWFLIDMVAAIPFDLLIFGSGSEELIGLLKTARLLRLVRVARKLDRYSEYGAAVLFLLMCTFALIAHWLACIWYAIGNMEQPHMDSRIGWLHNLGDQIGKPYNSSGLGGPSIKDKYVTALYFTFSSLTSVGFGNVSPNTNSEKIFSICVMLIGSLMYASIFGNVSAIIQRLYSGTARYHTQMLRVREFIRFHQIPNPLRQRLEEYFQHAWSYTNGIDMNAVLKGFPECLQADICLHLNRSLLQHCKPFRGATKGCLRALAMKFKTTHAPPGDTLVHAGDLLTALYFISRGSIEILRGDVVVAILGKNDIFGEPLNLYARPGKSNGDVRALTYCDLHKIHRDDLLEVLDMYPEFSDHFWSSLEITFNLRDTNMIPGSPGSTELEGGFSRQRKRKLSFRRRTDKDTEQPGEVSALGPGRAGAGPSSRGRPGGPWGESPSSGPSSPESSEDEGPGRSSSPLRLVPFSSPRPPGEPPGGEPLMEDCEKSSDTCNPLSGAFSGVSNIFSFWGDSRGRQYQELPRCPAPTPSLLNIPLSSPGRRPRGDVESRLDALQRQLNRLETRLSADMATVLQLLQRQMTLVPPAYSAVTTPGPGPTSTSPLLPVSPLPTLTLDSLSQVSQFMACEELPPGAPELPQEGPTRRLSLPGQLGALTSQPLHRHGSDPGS
Turning to `CC(C)C[C@H](NC(=O)[C@@H]1CCCN1C(=O)[C@@H](N)Cc1ccc(O)cc1)C(=O)NCC(N)=O` (H-YPLG-NH2), the “hERG current change (%, negative = inhibition) at 10uM” value is listed as 15.9%.

For the compound `CCNC(=O)c1ccccc1SCc1ccccc1`, the “hERG current change (%, negative = inhibition) at 10uM” value is on record as 1.38%. Under `CC(c1ccccc1)N1C(=O)c2ccccc2C1(O)Cc1ccccc1` (centres unmarked) stands -4.7%; under `Cc1ccc(OCCOC(=O)C2CCN(S(=O)(=O)c3ccc(C)c(C)c3)CC2)cc1`, 2.76%. `CCOC(=O)C1CCN(C(=O)C2(NC(=O)NC3CCCCC3)CCCCC2)CC1`: the “hERG current change (%, negative = inhibition) at 10uM” value was 22.8%. Turning to `Cc1noc(/C=C/N(C)C)c1S(=O)(=O)NC1CCCCC1`, the “hERG current change (%, negative = inhibition) at 10uM” value came out at 7.75%. The value for `CC(C)(C)OC(=O)N1CCC[C@H]1c1nnc(SCc2c(Cl)cccc2Cl)o1` was -57.5%; that for `COC(=O)c1ccccc1NC(=O)c1sc(=S)n(C)c1N` was 9.99%. In the case of `CCOc1ccccc1C(=O)NCC(=O)NCCCc1ccccc1`, the “hERG current change (%, negative = inhibition) at 10uM” value is given as -11.7%.

Take `CCOC(=O)c1ccc(NC(=O)c2cccc(C)c2[N+](=O)[O-])cc1`: the “hERG current change (%, negative = inhibition) at 10uM” value came out at 4.73%. Consider `Cc1ccc(N=Nc2c(O)ccc3n[nH]nc23)cc1`, for which the “hERG current change (%, negative = inhibition) at 10uM” value was determined as 7.51%. Under `Cc1c(C(=O)Nc2cccc(N(C)S(C)(=O)=O)c2)cccc1[N+](=O)[O-]` stands 3.7%. Under `Cc1ccc(C(=O)CSc2nnnn2-c2ccccc2)o1` stands -2.08%; under `COCc1cc(=O)[nH]c(/N=C(\N)Nc2ccccc2C)n1`, -9.8%. Under `Cc1[nH]c2c(C)cccc2c(=O)c1Br` stands 2.14%.

In the case of `Cc1c(C(=O)N2CCCC2)c(S(=O)(=O)Nc2ccccc2Cl)c(C)n1C`, the “hERG current change (%, negative = inhibition) at 10uM” value stood at 5.75%. The value for `CN1C(=O)C(C(=O)NC(C)(C)C)C2c3ccccc3OC13CCCCC23` (centres unmarked) was -8.31%; that for `O=C(NN1CC(=O)N(c2cc(Cl)cc(Cl)c2)CC1=O)c1cccs1` was 3.07%. The value for `CCn1c(SCC(=O)NCc2ccco2)nnc1C(C)C` was 0.334%. The value for `O=C(OC1CCOC1=O)c1cc(Cl)ccc1[N+](=O)[O-]` (centres unmarked) was 1.35%; that for `Cc1cc(Cl)ccc1NC(=S)NC(C)(C)C` was 22.7%. On to `NC(=O)CC(NC(=O)Cc1ccc(Br)cc1)c1ccc(NCCc2cccc(F)c2)c([N+](=O)[O-])c1` (centres unmarked), for which the “hERG current change (%, negative = inhibition) at 10uM” value is listed as 4.53%. Under `Nc1nc(CN2CCN(c3ccccc3)CC2)nc(N2CCCc3ccccc32)n1` stands -39.6%; under `C=CCN(Cc1cc(OC)ccc1OC)C(=O)c1cc2ccc(OC)cc2[nH]1`, 4.2%. As to `O=C(Nc1ccc2oc(=O)ccc2c1)c1ccc(-c2cccc([N+](=O)[O-])c2)o1`, the “hERG current change (%, negative = inhibition) at 10uM” value is reported as -8.21%. Under `CNc1ccccc1C(C)(C)c1cc(-c2ccc(F)cc2)no1` stands 14.8%; under `CCc1noc(C)c1C(=O)N(CC)CC(=O)Nc1ccccc1C(F)(F)F`, 4.76%. For `Nc1c(C(=O)c2ccc(Br)cc2)oc2ccccc12`, the “hERG current change (%, negative = inhibition) at 10uM” value amounted to 18.4%. Under `O=C(O)c1ccc(NC(CSCc2ccc(F)cc2)C(=O)O)c([N+](=O)[O-])c1` (centres unmarked) stands 2.41%; under `O=C(CN1CCN(Cc2ccccc2Cl)C1=O)N1CCCCCC1`, 2.36%. In the case of `Cc1cccc(NC(=O)/C=C/c2ccc3c(c2)OCO3)n1`, the “hERG current change (%, negative = inhibition) at 10uM” value turned out to be 19.1%. The value for `O=C(CSc1n[nH]c(-c2ccccc2)n1)NCc1cccc(C(=O)O)c1` was 21.4%; that for `CCCC(=O)N1CCN(c2ccc(NC(=O)C(C)(C)C)cc2)CC1` was 7.44%. The value for `COc1ccc(CCNC(=O)CSc2nnc3ccccn23)cc1` was 20.8%; that for `CCOC(=O)N1CCN(C(=O)c2cnn3c(C(F)F)cc(-c4ccc(C)cc4)nc23)CC1` was -0.653%. The value for `NCCCCCc1cn([C@@H](CCC(=O)O)C(=O)NCCCCCCCCCCC(=O)N2CCNCC2)nn1` was 15.6%; that for `O=c1c2c3c(sc2nc2n1CCC2)CCCC3` was 10.4%.

As to `CCOC(=O)c1c(N2C(=O)CC(Sc3ccccc3C(=O)O)C2=O)sc(C)c1C` (centres unmarked), the “hERG current change (%, negative = inhibition) at 10uM” value amounted to 7.33%.

In the case of `Cc1ccc(-c2cn3cccnc3n2)cc1`, the “hERG current change (%, negative = inhibition) at 10uM” value is on record as -5.77%. Turning to `CN(CC(=O)Nc1ccccc1Sc1ccccc1)Cc1nc2ccccc2c(=O)[nH]1`, the “hERG current change (%, negative = inhibition) at 10uM” value is given as -37.1%. For `NS(=O)(=O)c1cnccc1Nc1cccc(Br)c1`, the “hERG current change (%, negative = inhibition) at 10uM” value is -1.65%. The value for `O=c1cc(N2CCOCC2)cnn1-c1ccccc1` was 3.68%; that for `O=C(CSc1cn(CCNC(=O)c2cccs2)c2ccccc12)NCc1ccccc1` was -12.5%; that for `COc1cccc2cc(C(=O)N3CCC(C)CC3)c(=O)oc12` was 0.289%.
